Measured values as given in the supplement of paper PMC4466236.
In all, about 33,000 sequences were measured (“E-score (dimensionless, -0.5 to 0.5)”: median about -0.058, highest 2% from about 0.35 on). The list shows a part of the results.

Tested on: MvaT
Experiment: PBM 8-mer E-score (mean of HK and ME arrays) (E-score (dimensionless, -0.5 to 0.5)); higher = stronger relative binding preference; most listed sequences are background and not binding sites
How it was run: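 Full-length P. aeruginosa MvaT, with glutathione S-transferase fused to its N-terminus (cloned into pTH6838 by isothermal assembly), was tested by protein binding microarray using a previously described protocol. Two universal double-stranded 60-mer arrays (ME and HK) were used, each with a constant 25-mer primer region and a variable 35-mer region covering all 8-mers. The rank-based 8-mer E-score (-0.5 to 0.5) is the mean of the two arrays, parsed with a custom Python script.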

Sequence | PBM 8-mer E-score
CGATCATC | -0.154
TACGCGAA | 0.109
CATGATGA | 0.00291
GGATCCAA | -0.192
CCGCTAAA | 0.0528
CCCAGCCC | -0.292
AAGTATCG | 0.194
AATAGTTC | 0.227
ACCGGTGC | -0.3
AATAACTC | 0.228
GGAACGTA | -0.145
GCATTGCC | -0.0733
CGCGGAAG | -0.105
CCTGGCGA | -0.207
AGGGCCCC | -0.312
TGAGCGCA | -0.193
CGCCCAGA | -0.269
ACCGTTTG | -0.00262
AGGGGTCC | -0.292
TAGCTCAA | -0.134
AAAGTTGC | 0.218
TACCGTCA | -0.0622
ATTGTATA | 0.324
TGGCAACA | -0.122

Sequence | PBM 8-mer E-score
CGGAGGAA | -0.189
AGGTCTTG | -0.0961
AAGGGGGA | -0.115
CCTTAGGA | -0.319
TATTTCAA | 0.292
CAACAGGC | -0.146
AATCCAGT | 0.0746
ATTGCTTG | 0.0419
GGTAAGGA | -0.186
CTCTCAAA | -0.0373
AAGCTGGT | -0.136
TGAAGCCA | -0.0665
ATAACAGC | 0.232
CCACGTTC | -0.156
AAAACAAT | 0.349
CGTCCACC | -0.147
ATCCTTCA | -0.134
GACTTCAC | -0.0427
CATTGGGC | -0.202
GGCTTAAA | 0.204
GCGAGCGC | -0.116
GCACTCAC | -0.167
CAGCCGAG | -0.274
CCATTTCC | -0.111

Sequence | PBM 8-mer E-score
AATTAAAT | 0.452
CACGATAC | -0.0547
GCGTTTTA | 0.129
TCACGCCA | 0.00753
GTCCAAGA | -0.0983
AATAATAA | 0.478
TATAGGCA | 0.169
TAGTTGAA | 0.236
AGACTCCA | -0.0861
AAGTACCA | 0.1
GCGAAGCC | -0.279
CCGAAAAG | 0.0555
AGGGTCCC | -0.204
ATCCCTGA | -0.15
CAATATCC | 0.127
CCGGCTCC | -0.384
AGGGCCAC | -0.213
AGTGCGGA | 0.0614
CTGTCTCA | -0.0294
AGCTTTGG | -0.312
AAACAGAT | 0.111
ACGTAATG | 0.0923
GTTCGACA | -0.0253
AAAATCGT | 0.126

Sequence | PBM 8-mer E-score
AGATCCAT | -0.0762
CAGAGCGC | -0.189
GTGCCAAC | -0.164
GGAGAACC | -0.276
AGGCGCGG | -0.243
TAAACTTA | 0.352
CTGTTTCA | -0.122
ATGGGAGA | -0.123
CTAGATGC | -0.116
AGGATTCC | -0.209
GGCCGCCA | -0.127
CCATCTCC | -0.216
AGCTCTTA | 0.0954
GACTGTGA | -0.0824
AGCCCATA | -0.0669
ATGTTATA | 0.442
ATAGGCAA | 0.0817
ACTCGCTC | -0.134
AGGAACCT | -0.139
AGTTTAAG | 0.257
CTGAGACA | -0.147
TTAAGCAA | 0.231
